Data published in PubChem BioAssay AID1631 (National Center for Advancing Translational Sciences (NCATS), 2009).
The campaign covered roughly 260,000 compounds. About 890 (0.34%) were called active. Inconclusive means that the source gave no clear call. Such entries were picked first, then a sample of the others. The call rests on the fitted dose curve; in most records, active means well fitted activation curve with a large enough effect; inconclusive means small, poorly fitted or top-dose-only effect; inactive means no such curve, though single readings can be large or run the other way. No potency is given beside an inconclusive call; the fits are too rough.

target: Pyruvate kinase PKM (Homo sapiens) (UniProt P14618); assay: qHTS Assay for Activators of Human Muscle isoform 2 Pyruvate Kinase; details: purified PKM2, Kinase-Glo ATP luminescence; Potency: activation; activation: at 57.5 µM (top of the series), 0% is enzyme alone, no compound; further: nearly all actives have a fitted effect of over 55% in size
In short: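 Purified hPK-M2 (>95%) run at intermediate activity with 0.1 mM ADP and 0.5 mM PEP in 50 mM imidazole pH 7.2, KCl, MgCl2; 1 h room temperature. ATP formed read by Kinase-Glo luminescence; normalized to uninhibited and no-enzyme controls.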
Potency means the concentration at half of the fitted maximal effect; tags describe the fitted curve by direction and shape.

UniProt P14618, sequence (P14618 whole entry, looked up, canonical isoform): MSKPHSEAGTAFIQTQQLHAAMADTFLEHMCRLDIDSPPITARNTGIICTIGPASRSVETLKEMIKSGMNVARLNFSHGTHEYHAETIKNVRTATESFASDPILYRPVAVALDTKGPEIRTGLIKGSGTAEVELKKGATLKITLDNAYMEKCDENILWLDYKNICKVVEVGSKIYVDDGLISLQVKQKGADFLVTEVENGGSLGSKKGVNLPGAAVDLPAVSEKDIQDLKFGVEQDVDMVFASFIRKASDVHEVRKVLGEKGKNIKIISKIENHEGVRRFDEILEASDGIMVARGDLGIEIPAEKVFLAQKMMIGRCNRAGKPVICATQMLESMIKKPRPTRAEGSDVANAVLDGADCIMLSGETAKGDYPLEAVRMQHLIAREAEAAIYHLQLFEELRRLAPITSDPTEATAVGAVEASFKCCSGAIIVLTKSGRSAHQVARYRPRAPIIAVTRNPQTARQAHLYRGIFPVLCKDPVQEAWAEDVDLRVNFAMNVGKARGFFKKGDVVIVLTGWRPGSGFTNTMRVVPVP

Row | Compound | Potency
1 | CCOC(=O)C1=C(C)NC2=C(C(=O)c3ccccc32)C1c1ccc([N+](=O)[O-])o1 (stereo unspecified) | inconclusive [rising, partial curve]
2 | N#Cc1ccc(OCc2nnc(-c3ccc([N+](=O)[O-])cc3)o2)cc1 | inconclusive [rising, single point]
3 | Cc1ccc(/C(C#N)=C\c2ccc(N3CCOCC3)o2)cc1 | active: 2.82 µM
4 | C/C(=N\NC(=S)NCc1ccccc1)c1ccc(Cl)s1 | inactive
5 | CN(C)c1nccc(N(Cc2ccccc2)Cc2ccccc2)c1C#N | inconclusive [rising, single point]
6 | Cc1c(Cl)cccc1NC(=O)CSCc1cc(=O)[nH][nH]1 | inconclusive [rising, single point]
7 | COc1ccc(NC(=O)CSc2nc3[nH]c(=O)[nH]c(=O)c3s2)cc1OC | inconclusive [rising, partial curve]
8 | CNC(=O)c1cc2c(s1)CCCCCC2 | inconclusive [rising, single point]
9 | COc1cccc(NS(=O)(=O)c2ccc(Br)s2)c1 | inconclusive [rising, partial curve]
10 | CC(C)C(=O)NNC(=O)c1ccccn1 | inactive
11 | CC(=O)c1ccc2c(c1)C1C=CCC1C(c1ccncc1)N2 (stereo unspecified) | inconclusive [rising, single point]
12 | CCC(NC(=O)c1[nH]c(C)c(C(C)=O)c1C)c1ccc(Br)cc1 (stereo unspecified) | inconclusive [rising, full curve]
13 | COc1cccc(S(=O)(=O)Nc2ccc(C(=O)NCc3ccco3)cc2)c1 | inconclusive [rising, single point]
14 | Cc1cc2sc(C(=O)O)c(C)c2s1 | inconclusive [rising, single point]
15 | Cc1ccc2nc(C)cc(N/N=C/c3ccc(F)cc3)c2c1 | active: 15.8 µM
16 | O=C(CSc1ccccc1C(=O)O)NC1CCCCCC1 | inactive
17 | Nc1nc(SCC(=O)c2ccc([N+](=O)[O-])cc2)n[nH]1 | inconclusive [rising, partial curve]
18 | O=C(Nc1ccc(NC(=S)NC(=O)c2cccs2)cc1)c1ccco1 | inconclusive [rising, single point]
19 | CC1CCc2c(sc(NC(=O)C3CCCO3)c2C#N)C1 (stereo unspecified) | inactive
20 | O=C1/C(=C/c2ccncc2)SC(=S)N1Nc1ccccc1 | inactive
21 | O=S(=O)(Nc1ccc(Cl)cc1)c1ccc2c(c1)CCO2 | active: 17.8 µM
22 | CCn1ccnc1CN(C)Cc1cn(-c2cc(C)ccc2C)nc1-c1ccccc1 | inconclusive [rising, single point]
23 | Cc1occc1-c1nnc(SCC(=O)c2ccc(Cl)cc2)n1C | inactive
24 | CCOc1cc(/C=C2\SC(=O)N=C2N)ccc1O | inconclusive [rising, single point]
25 | Cc1ccc(C)c(NS(=O)(=O)c2c(C)nc3sccn3c2=O)c1 | inconclusive [rising, partial curve]
26 | Cc1nnc(SCc2nc3sc4c(c3c(=O)[nH]2)CCCC4)n(N)c1=O | inconclusive [rising, single point]

Row | Compound | Potency
27 | Cc1cc(SCc2ccccc2)nc(=O)[nH]1 | inconclusive [rising, single point]
28 | COc1cccc2sc(Nc3nnc(-c4ccccc4Cl)o3)nc12 | inconclusive [rising, single point]
29 | CCC(=O)N1N=C(c2ccc(NS(=O)(=O)CC)cc2)CC1c1ccc(C)cc1 (stereo unspecified) | inconclusive [rising, single point]
30 | CC(=O)N(C1=C(Cl)C(=O)c2ccccc2C1=O)C1CCCCC1 | active: 3.55 µM
31 | O=C(N/N=C/C=C\c1ccccc1[N+](=O)[O-])c1cccs1 | inconclusive [rising, single point]
32 | O=C(Nc1ccc(N2CCN(C(=O)c3cccs3)CC2)c(Cl)c1)c1ccco1 | inactive
33 | Cc1cc(C)c2c(=O)n(CC(=O)Nc3ccc(Br)c(C)c3)sc2n1 | inconclusive [rising, partial curve, poor fit]
34 | Cc1nnc2sc(SCc3ccccc3Cl)nn2c1=O | active: 7.08 µM
35 | COCCN=c1scc(-c2cccs2)n1/N=C/c1ccc(O)c(O)c1O | inconclusive [rising, partial curve, poor fit]
36 | Cc1ccc(NC(=O)Cn2nnc3ccccc32)cc1 | inactive
37 | COc1ccc2[nH]c(=O)c(CN(Cc3ccccc3OC)Cc3nnnn3CC3CCCO3)cc2c1 (stereo unspecified) | inactive
38 | O=C(c1ccc2c(=O)n3c(nc2c1)CCCCC3)N1CCN(C(c2ccccc2)c2ccccc2)CC1 | inconclusive [rising, partial curve]
39 | O=C(NCc1ccc(F)cc1)C1CCN(S(=O)(=O)c2ccc3c(c2)OCCCO3)CC1 | inconclusive [rising, partial curve]
40 | CC12C(=O)N(Cc3ccccc3)C(=O)C1C1C=CC2C1 (stereo unspecified) | inactive
41 | O=C(c1cccc2ccccc12)C1CCCN(C(=O)CCN2CCCO2)C1 (stereo unspecified) | inconclusive [rising, single point]
42 | COc1cccc(NC(=O)CSc2ccccn2)c1 | inconclusive [rising, single point]
43 | CCCCSCCCNC(=O)Nc1cccc(OC)c1 | inconclusive [rising, single point]
44 | CCOC(=O)c1ccc(-n2c(N)c(C(=O)NCc3ccco3)sc2=S)cc1 | inconclusive [rising, single point]
45 | Nc1nc(SCC(=O)Nc2cccnc2Cl)n[nH]1 | inactive
46 | O=C(CS(=O)(=O)c1ccccc1)c1ccc2c(c1)OCCO2 | inactive
47 | Cc1cn([C@H]2C[C@H](N=[N+]=[N-])[C@@H](CO)O2)c(=O)[nH]c1=O | inconclusive [rising, partial curve]
48 | Cn1c(Cn2cnc3ccccc32)nc2ccccc21 | inconclusive [rising, partial curve]
49 | COc1cc(C2C(C#N)=C(N)Oc3cc(O)ccc32)cc2c1OCO2 (stereo unspecified) | inconclusive [rising, partial curve]
50 | Cc1ccc(-c2nc3c(c(=O)[nH]c(=O)n3Cc3ccccc3)n2Cc2ccccc2)o1 | active: 17.8 µM
51 | CCC(CC)c1nnc(NC(=O)c2cccnc2SC)s1 | inconclusive [rising, single point]
52 | COc1ccc(NC(=O)Nc2ccc3c(c2)CCC3)cc1 | inactive

Row | Compound | Potency
53 | Cc1cc(C(=O)CN2C(=O)c3ccccc3C2=O)c(C)n1C1CC1 | inactive
54 | CCOC(=O)c1cnc2ccccc2c1Nc1cccc(C(=O)O)c1 | inactive
55 | CCN(CC)C(=O)C1CCN(CC2CC=CCC2)CC1 (stereo unspecified) | inconclusive [rising, partial curve, poor fit]
56 | CCCSc1nnc(NC(=O)CCc2ccccc2)s1 | inactive
57 | Cc1ccc(-c2nc(SCC(=O)Nc3ccccc3OC(F)F)c3c(C)c(C(=O)O)sc3n2)cc1 | inconclusive [rising, partial curve]
58 | O=C(c1ccc(NS(=O)(=O)c2cccc3cccnc23)cc1)N1CCCCC1 | active: 15.8 µM
59 | CCC(=O)Nc1nnc(SCc2ccccc2F)s1 | inactive
60 | CCCCn1c(=O)n(CC(=O)Nc2ccc(C)c(Cl)c2)c(=O)c2c1ncn2Cc1ccco1 | inconclusive [rising, single point]
61 | CC(=O)c1c(OC(=O)c2ccccc2)c2ccccc2n1C | inconclusive [rising, full curve]
62 | O=C(CCCNS(=O)(=O)c1cccs1)N1CCc2ccccc2C1 | inconclusive [rising, single point]
63 | CC(C)c1cc(NC(=O)CCl)on1 | inactive
64 | Cc1nc(NCc2ccccc2)c2nc(-c3ccccc3)n(C(C)CN(C)C)c2n1 (stereo unspecified) | inactive
65 | COc1cc(OC)c(NC(=O)CCc2nc(-c3cccs3)no2)cc1Cl | inconclusive [rising, partial curve]
66 | COc1ccc(OC)c2c(C)cc(N3CCN(C(=O)c4ccc(C)cc4)CC3)nc12 | inconclusive [rising, single point]
67 | Cn1c(NCc2ccco2)nc2c1c(=O)n(Cc1ccc(Cl)cc1)c(=O)n2C | inconclusive [rising, partial curve, poor fit]
68 | Cc1ccc(S(=O)(=O)N2CCN(C(=O)CSc3nncs3)CC2)cc1 | active: 17.8 µM
69 | CCOc1ccccc1NC(=O)C(NC(=O)C1CCC(C)CC1)C(C)C (stereo unspecified) | inconclusive [rising, single point]
70 | Cc1cc(C)cc(NS(=O)(=O)c2cc3[nH]c(=O)c(=O)[nH]c3cc2C)c1 | inconclusive [rising, full curve]
71 | C/C(=C\C(=O)c1c(O)cc(C)oc1=O)N(C)C | inactive
72 | Cc1ccccc1S(=O)(=O)NCC1CCCO1 (stereo unspecified) | inconclusive [rising, single point]
73 | CN(C)/C=C/c1c([N+](=O)[O-])c2ccc(O)cc2n1-c1ccccc1 | inactive
74 | Cc1ccn2c(/C=N/OCc3cccc(F)c3)c(-c3ccc(Cl)cc3)nc2c1 | inconclusive [rising, single point]
75 | Cc1ccc(-c2csc(NC(=O)c3ccc(-c4ccccc4)cc3)n2)o1 | inconclusive [rising, partial curve]
76 | Nc1ccc2nc(CCCCCCCCc3nc4ccc(N)cc4[nH]3)[nH]c2c1 | inconclusive [rising, partial curve]
